Source: PubChem BioAssay AID504332 (National Center for Advancing Translational Sciences (NCATS), 2011)
About 31,000 (8.9%) of roughly 350,000 compounds were called active. The shares of active, inactive and inconclusive entries below differ from those in the screen. Calls follow the shape of the dose curve; as a rule, active = well fitted inhibition curve with a large enough effect; inconclusive = small, poorly fitted or top-dose-only effect; inactive = no such curve, though single readings can be large or run the other way. Potencies beside an inconclusive call are fits to weak or partial responses and may not hold up.

target: Histone-lysine N-methyltransferase EHMT2 (Homo sapiens) (UniProt Q96KQ7); assay: qHTS Assay for Inhibitors of Histone Lysine Methyltransferase G9a; conditions: G9a H3K9 monomethylation, AlphaScreen, 2 h; activity, negative = inhibition: at 59 µM (top of the series) unless noted; also: nearly all actives have a fitted effect of over 75% in size
In short: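 G9a (20 nM) preincubated 15 min RT with compounds, then 500 nM biotinylated H3K9 peptide and 20 uM SAM added; 2 h RT reaction. Monomethyl-H3K9 product detected by AlphaScreen with anti-H3K9me1 antibody, streptavidin donor and anti-rabbit IgG acceptor beads.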
% is scaled to controls: 0 for no effect and ±100 for the full control effect; potency is read from the fitted curve at half-maximal effect; tags tell the direction and shape of the fitted curve.

Chain of UniProt Q96KQ7 (Q96KQ7 whole entry, looked up): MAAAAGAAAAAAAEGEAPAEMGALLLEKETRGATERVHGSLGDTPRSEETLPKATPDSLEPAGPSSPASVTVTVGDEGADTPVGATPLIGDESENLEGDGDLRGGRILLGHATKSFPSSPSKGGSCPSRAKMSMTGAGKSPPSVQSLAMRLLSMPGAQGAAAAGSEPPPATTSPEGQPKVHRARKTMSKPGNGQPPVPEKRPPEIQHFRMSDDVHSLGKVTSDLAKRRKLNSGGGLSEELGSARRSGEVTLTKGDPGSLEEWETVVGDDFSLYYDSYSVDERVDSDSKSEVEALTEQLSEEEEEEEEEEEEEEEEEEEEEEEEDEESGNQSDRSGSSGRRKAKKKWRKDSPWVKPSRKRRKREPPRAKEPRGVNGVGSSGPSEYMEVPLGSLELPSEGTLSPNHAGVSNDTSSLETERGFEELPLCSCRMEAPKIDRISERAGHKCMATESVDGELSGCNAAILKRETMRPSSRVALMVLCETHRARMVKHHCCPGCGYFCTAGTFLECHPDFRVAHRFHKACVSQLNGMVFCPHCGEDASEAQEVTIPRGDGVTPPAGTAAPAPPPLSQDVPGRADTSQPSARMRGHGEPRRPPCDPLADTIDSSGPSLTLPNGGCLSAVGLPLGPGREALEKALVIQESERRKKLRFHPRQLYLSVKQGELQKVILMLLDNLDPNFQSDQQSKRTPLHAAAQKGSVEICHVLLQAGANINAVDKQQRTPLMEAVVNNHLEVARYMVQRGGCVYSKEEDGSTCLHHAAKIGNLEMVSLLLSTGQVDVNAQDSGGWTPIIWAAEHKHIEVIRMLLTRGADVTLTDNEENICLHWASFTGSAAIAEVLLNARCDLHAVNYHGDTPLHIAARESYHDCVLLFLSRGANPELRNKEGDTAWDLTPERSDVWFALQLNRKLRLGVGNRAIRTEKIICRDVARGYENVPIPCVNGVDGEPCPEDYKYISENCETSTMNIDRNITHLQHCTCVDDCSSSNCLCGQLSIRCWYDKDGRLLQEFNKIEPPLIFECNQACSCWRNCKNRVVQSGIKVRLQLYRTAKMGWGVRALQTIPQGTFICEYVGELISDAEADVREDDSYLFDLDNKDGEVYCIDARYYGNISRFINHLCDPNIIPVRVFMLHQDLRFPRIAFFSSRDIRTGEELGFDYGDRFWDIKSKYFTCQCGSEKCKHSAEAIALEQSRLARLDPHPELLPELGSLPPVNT

Structure (SMILES) | Potency | activity, negative = inhibition
COCCn1nnnc1C(c1ccccc1)N1CCN(C(=O)c2ccco2)CC1 (stereo not drawn) | inconclusive: 3.55 µM [inhibitor, full curve, poor fit] | –
Clc1ccc(-c2[nH]ncc2N=Nc2ccccc2)cc1 | inconclusive: 70.8 µM [inhibitor, single point] | –
CN1CCN(C2=C(NS(=O)(=O)c3cccs3)C(=O)c3ccccc3C2=O)CC1 | inconclusive: 44.7 µM [inhibitor, single point] | –
CCOC(=O)CSc1nc2ccc(NC(=O)COc3ccccc3)cc2s1 | – | inactive: -8.05%
O=C(NCC1CCCO1)C(=O)N/N=C/c1cc(Cl)ccc1O (stereo not drawn) | – | inactive: -1.93% [at 102 µM]
COc1ccccc1NC(=O)/C=C\C(=O)O | inconclusive: 50.1 µM [inhibitor, partial curve, poor fit] | –
O=[N+]([O-])c1ccc(Sc2nnnn2-c2ccccc2)c(Cl)c1 | active: 50.1 µM | –
CSCCC(C(=O)O)N1C(=O)c2ccc(C(=O)O)cc2C1=O (stereo not drawn) | active: 25.1 µM | –
COc1ccc(NC(=O)c2ccc(NC(=O)CSc3nccc(=O)[nH]3)cc2)cc1 | – | inconclusive: -68.3% [inhibitor]
CCOc1ccc(C2CC(c3ccccc3C)n3nc(N)nc3N2)cc1 (stereo not drawn) | inconclusive: 3.98 µM [inhibitor, partial curve, poor fit] | –
COc1ccc(NS(=O)(=O)c2ccc(Br)cc2)cn1 | – | inactive: 6.34% [at 102 µM]
Cc1ccc(C)n1-n1c(C)nc2sc3c(c2c1=O)CCCCC3 | inconclusive: 31.6 µM [inhibitor, single point] | –
CC(=O)Nc1ccc(C(=O)CN2CCN(c3ccccc3)CC2)cc1 | inconclusive: 0.794 µM [inhibitor, full curve, poor fit] | –
Cc1ccccc1C(=O)NCC(=O)OC1CCCCC1=O (stereo not drawn) | – | inactive: -9.25% [at 102 µM]
O=C1S/C(=C\c2ccc(O)c([N+](=O)[O-])c2)C(=O)N1Cc1cccc([N+](=O)[O-])c1 | inconclusive: 3.55 µM [inhibitor, full curve] | –
O=C(Nc1ccc2c(c1)OCCO2)c1cnc2n(c1=O)CCS2 | active: 50.1 µM | –
Cn1c(=S)[nH]c(=O)c2ncc(=O)[nH]c21 | inconclusive: 56.2 µM [inhibitor, single point] | –
Cc1cc(C(=O)COC(=O)Cc2n[nH]c(=O)c3ccccc23)c(C)n1-c1cccc(C(F)(F)F)c1 | inconclusive: 89.1 µM [inhibitor, single point] | –
Cc1cc(C)cc(-n2nnc(C(=O)NCc3ccco3)c2N)c1 | inconclusive: 22.4 µM [inhibitor, single point] | –
O=S1(=O)[C@H]2C[C@@H]3C=C[C@]2(CN1Cc1ccc(C(F)(F)F)cc1)O3 | – | inconclusive: -79.2% [inhibitor]
CN1C(=O)N(C)C2(c3ccccc3)Nn3c(s/c(=C/c4ccco4)c3=O)=NC12c1ccccc1 (stereo not drawn) | inconclusive: 1.78 µM [inhibitor, partial curve, poor fit] | –
Cc1ccc2nc(SCC(=O)Nc3ccc(F)c([N+](=O)[O-])c3)[nH]c2c1 | inconclusive: 28.2 µM [inhibitor, single point] | –
O=C(Nc1ccc2c(c1)OCCO2)C(=S)NCc1ccccc1 | inconclusive: 50.1 µM [inhibitor, partial curve, poor fit] | –
O=C(CCc1c[nH]c2ccccc12)NCc1ccncc1 | active: 50.1 µM | –

Structure (SMILES) | Potency | activity, negative = inhibition
COc1ccc(C(c2c(O)cc(C)n(Cc3ccco3)c2=O)N2CCN(c3ccccc3)CC2)cc1 (stereo not drawn) | inconclusive: 39.8 µM [inhibitor, single point] | –
CC1(C)CC(NC(=O)C23CCC(C)(C(=O)C2=O)C3(C)C)CC(C)(C)N1 (stereo not drawn) | – | inactive: 0.176%
COc1ccc(/C(O)=C2/C(=O)C(=O)N(CC3CCCO3)C2c2cccc(O)c2)cc1 (stereo not drawn) | inconclusive: 79.4 µM [inhibitor, single point] | –
CCO[C@H]1OC(C(=O)N2CCN(C)CC2)=C[C@@H](c2ccc(Br)cc2)[C@@H]1CCCO | – | inactive: 21.3%
COCC(C)(C)COS(N)(=O)=O | – | inactive: 18.3% [at 102 µM]
COc1ccc(Cl)cc1NC(=O)C1CCN(c2ncnc3c2nc2n3CCCCC2)CC1 | – | inactive: -30.5%
CCOC(=O)c1c(NC(=O)CN2CCCCC2)sc(CN(C)C)c1-c1ccccc1 | inconclusive: 50.1 µM [inhibitor, partial curve, poor fit] | –
CCCn1c2c(c(=N)c3c1CCC3)CCC2 | active: 50.1 µM | –
COc1ccc(C(=S)N2CCOCC2)cc1OC(=O)c1ccccc1Cl | active: 11.2 µM | –
O=C(COc1ccccc1)Nc1ccc(OCc2cc(=O)n3ccsc3n2)cc1 | – | inactive: -2.16%
O=C(c1ccco1)N1CCN(c2ncnc3sc4c(c23)CCC4)CC1 | inconclusive: 6.31 µM [inhibitor, single point] | –
Nc1nc(=S)c2[nH]cnc2[nH]1 | active: 2.24 µM | –
Cc1ccc(C(=O)Cn2ncsc2=N)cc1 | – | inconclusive: -52% [inhibitor]
C[N+](C)(C)C(Cc1ccccc1)C(=O)[O-] (stereo not drawn) | – | inconclusive: -56.6% [inhibitor]
COC(=O)[C@H](C)NC(=O)c1cc2c(cn1)[nH]c1ccccc12 | active: 1.41 µM | –
O=C(NC1CCCCC1)c1cc(C2CC2)nn1-c1ccccc1 | – | inactive: 4.54% [at 2.33 µM]
CCOC(=O)C1CCN(C(=O)c2cccc(NS(=O)(=O)c3ccc(F)c(F)c3)c2)CC1 | active: 50.1 µM | –
O=c1c2cc(O)c(O)cc2oc2cc(O)c(C3OC(CO)C(O)C(O)C3O)c(O)c12 (stereo not drawn) | active: 2.82 µM | –
O=C(NC(Cc1ccccc1)c1nc2ccccc2[nH]1)C1CC(=O)N(c2ccc3c(c2)OCCO3)C1 (stereo not drawn) | active: 12.6 µM | –
O=C1CC(=C(c2ccccc2)c2ccccc2)C(=O)N1CCCCN1CCN(c2ccccc2)CC1 | active: 14.1 µM | –
NC(=O)C1CC=CCC1C(=O)OCC(Cl)=C(Cl)Cl (stereo not drawn) | inconclusive: 39.8 µM [inhibitor, single point] | –
CN(/N=C/c1ccncc1)C1=NCCN1 | inconclusive: 70.8 µM [inhibitor, single point] | –
CCc1nnc(NC(=O)CCC(=O)NC2CCCC2)s1 | – | inactive: 32.5% [at 102 µM]
Cc1ccccc1CC(=O)Nc1ccc(C(=O)N2CCCC2)cc1 | inconclusive: 50.1 µM [inhibitor, partial curve] | –
